According to PubChem BioAssay AID1346428 (National Center for Advancing Translational Sciences (NCATS), 2018):
Several values for one entry are separate records, joined by “and”; a condition that tells them apart may be missing. Equal entries are not always repeated. About 1,200 (2.5%) of roughly 48,000 compounds were called active. Another 2% or so got no clear call; they are omitted.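 How the source made its calls: active means activation of at least 60% and not above a set upper limit (about 1 call in 100 departs from these limits); inconclusive means activation of 40% to 60%, or above that upper limit; inactive means activation under 40%.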 The list shows a part of the results.
Further: 0% is about no effect.

What follows are compounds tested against Probable G-protein coupled receptor 32 (Homo sapiens) (UniProt O75388) (assay: qHTS for Agonists of Human Resolvin D1 Receptor DRV1). Settings: CHO-K1 GPR32 beta-arrestin PathHunter luminescence, 90 min; at 76.9 µM; stronger effect = higher value; zero percent set by DMSO-only wells.
Chain of UniProt O75388 (O75388 whole entry, looked up): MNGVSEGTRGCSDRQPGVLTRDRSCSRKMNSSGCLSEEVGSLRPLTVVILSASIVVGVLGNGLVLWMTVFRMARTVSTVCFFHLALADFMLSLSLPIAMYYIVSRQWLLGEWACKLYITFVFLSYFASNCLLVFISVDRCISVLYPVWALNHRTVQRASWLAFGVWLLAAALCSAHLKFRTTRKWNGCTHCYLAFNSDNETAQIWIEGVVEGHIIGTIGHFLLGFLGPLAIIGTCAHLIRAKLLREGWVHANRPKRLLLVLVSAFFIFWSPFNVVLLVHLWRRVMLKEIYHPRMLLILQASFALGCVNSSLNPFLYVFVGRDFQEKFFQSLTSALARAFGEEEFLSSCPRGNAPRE
How it was run: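 Cells are plated overnight, treated with compounds in DMSO for 90 minutes at 37 °C, and developed with PathHunter detection reagent for 1 hour before luminescence is read; signal reflects beta-arrestin binding to GPR32 in engineered CHO-K1 cells.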
With `Cc1noc(Cn2c(=O)c3ccccc3n(CC(=O)Nc3cc(Cl)ccc3C)c2=O)n1` the activation was inactive: -10.9%. `CCOC(=O)c1[nH]c2ccccc2c1NC(=O)c1ccc(C)c(C)c1` was tested, and the activation was inactive: 34.6%. `CCC(C(=O)NCCc1ccc(OC)c(OC)c1OC)n1nc(C)c2sc3ccccc3c2c1=O` (stereo not given) was tested, and the activation was inactive: -23.7%. In the case of `Cc1ccc(CNC(=O)C2CCN(C(=O)N3CC(C)Oc4ccc(Cl)cc43)CC2)cc1` (stereo not given), the activation is reported as inactive: -9.09%. In the case of `CCOc1ccccc1NC(=O)CN1C(=O)CC(c2ccc(C)c(C)c2)=Nc2ccccc21`, the activation is reported as inactive: -5.74%. `O=C(O)C(S)C(S)C(=O)O` (stereo not given) was tested, and the activation was inactive: -75.8%. `Cc1ccc(-n2c(=O)c3c(cnn3C)n(CC(=O)Nc3cccc(Cl)c3)c2=O)cc1` was tested, and the activation was inactive: -1.71%. For `Cc1cc(C)cc(NC(=O)C(C)N2Cc3ccccc3C2=O)c1` (stereo not given), the activation was inactive: -16.9%. For `Cc1ccc(C)c(N2CCN(CCCNC(=O)c3cnn(-c4cccc(Cl)c4)c3C3CCN(C(=O)OC(C)(C)C)CC3)CC2)c1`, the activation was inactive: -18.1%. In the case of `CCOc1ccc(NC(=O)c2ccc3c(=O)n4c(nc3c2)CCCCC4)cc1`, the activation is reported as inactive: -19.1%. With `CCc1ccccc1NC(=O)CCn1cccn1` the activation was inactive: -5.53%. With `Cc1ccc(CSc2nc3ccccc3c3nc(CCn4c(C)nc5ccccc54)nn23)cc1` the activation was inactive: -9.28%. `CCn1nc(C(=O)O)c(=O)c2cc3c(cc21)OCO3` was tested, and the activation was inactive: 0.648% and inactive: -1.67%. `CCCNC(=O)CN1C(=O)COc2ccc(S(=O)(=O)N3CCCCCC3)cc21` was tested, and the activation was inactive: -5.61%. For `COc1cccc(NC(=O)C(C)n2c(=O)cc(C(F)(F)F)c3c(C)nn(C)c32)c1` (stereo not given), the activation was inactive: 13.7%. In the case of `Cc1ccc(-c2nnc(SCc3ccccc3)o2)cc1`, the activation is reported as inactive: -18.8%. In the case of `O=C(NCc1cccc(Br)c1)C1CCCCN1S(=O)(=O)c1ccc(F)cc1` (stereo not given), the activation is reported as inactive: -17%. In the case of `CC(C)Oc1ccc(CNC(=O)C(C)n2ccc3cc(S(=O)(=O)N4CCCCCC4)ccc32)cc1` (stereo not given), the activation is reported as inactive: 1.79%. `CC1CCN(S(=O)(=O)c2ccc3c(c2)N(C)C(=O)CC(=O)N3C)CC1` was tested, and the activation was inactive: 30.2%. With `CCc1ccc(CNC(=O)CN2C(=O)C3CCCCN3c3ccc(C(=O)N4CCCC4)cc32)cc1` (stereo not given) the activation was inactive: -26.9%. `COc1ccc(OCc2nc3ccccc3n2Cc2ccc(C(C)(C)C)cc2)cc1` was tested, and the activation was inactive: -8.05%. With `CCc1ccccc1NC(=O)Cn1c(=O)n(C(C)C)c(=O)c2oc3ccccc3c21` the activation was inactive: -11.2%. `CCOc1ccccc1NC(=O)Cn1c(=O)nc(-c2ccccc2F)c2cc(Cl)ccc21` was tested, and the activation was inactive: 5.42%. `COc1ccccc1NC(=O)c1cc2c(-c3ccccc3)nn(-c3ccccc3)c2s1` was tested, and the activation was inactive: 1.05%. In the case of `COc1ccc(S(=O)(=O)Nc2cccc(-c3ccc(N4CCCC4)nn3)c2)cc1F`, the activation is reported as inactive: -5.95%. For `CC1=C(C(N)=O)C(c2ccc(C)cc2)n2nc(SCc3ccccc3)nc2N1` (stereo not given), the activation was inactive: -4.23%. In the case of `COc1cc2c(cc1OC)CN(C(=O)[C@H](C)N[C@@H](CCc1ccccc1)C(=O)O)[C@H](C(=O)O)C2`, the activation is reported as inactive: -6.22%. In the case of `CCN1CCN(CCCNC(=O)Cn2nc(C)n3c(cc4c(OC)cccc43)c2=O)CC1`, the activation is reported as inactive: 0.58%. In the case of `COc1ccccc1-c1nn(CCC(=O)Nc2ccc(C)cc2)c2nc(C)cc(C)c12`, the activation is reported as inactive: 2.49%. In the case of `Cc1ccccc1NC(=O)CSc1ccc(-c2ccccn2)nn1`, the activation is reported as inactive: -9.11%. In the case of `O=C(NCc1ccccc1Cl)C1=Cc2cc(Br)ccc2OC1`, the activation is reported as inactive: -18.4%. For `CC(C)Oc1ccc(CNC(=O)c2cnc3sc(N4CCCC4)nn3c2=O)cc1`, the activation was inactive: -5.16%. For `CCOC(=O)NNC(=O)C1CCC(C)CC1` (stereo not given), the activation was inactive: -2.31%. With `Cc1oc2c(c1C(=O)NCc1ccccc1F)C1=NCCN1C=N2` the activation was inactive: -9.31%. In the case of `O=C(NCC(c1ccc2c(c1)OCO2)N1CCN(c2ccccc2)CC1)C(=O)Nc1ccccc1F` (stereo not given), the activation is reported as inactive: 3.42%. `CCN(CC)C(=O)Cn1ncc2c([nH]c3ccccc32)c1=O` was tested, and the activation was inactive: -12.6%. With `COc1cccc(N2CCN(C(=O)c3ccc4nc(N5CCC(C)CC5)sc4c3)CC2)c1` the activation was inactive: -29.6%. In the case of `CCOC(=O)c1cnc2ccc(C(=O)OC)cc2c1Nc1ccc(OCc2ccccc2Cl)cc1`, the activation is reported as inactive: -3.26%. For `CC(=O)Nc1cccc(-c2nnc(SCC(=O)c3cc([N+](=O)[O-])ccc3Cl)o2)c1`, the activation was inactive: 10%. In the case of `CCOc1ccc(NC(=O)CC2C(=O)N(c3ccc(OC)cc3)C(=O)N2CCC2=CCCCC2)cc1` (stereo not given), the activation is reported as inactive: -7.69%. `COc1ccc(C)cc1NC(=O)N(C(C)C)C1CCN(C(C)=O)CC1` was tested, and the activation was inactive: -5.19%. In the case of `Cc1ccc(N2CCN(c3nc4ccc(C(=O)c5ccccc5)cc4n4cnnc34)CC2)c(C)c1`, the activation is reported as inactive: -24%. `COc1ccccc1Nc1nn2c(=O)c3ccc(C(=O)NCCc4ccccc4)cc3nc2s1` was tested, and the activation was inactive: 11.4%. With `O=C(O)c1cc(-c2ccccc2)nn1Cc1ccccc1` the activation was inactive: 15.7%. For `COc1ccc(C(C)=O)cc1CSc1nc(Nc2ccc(F)c(F)c2)c2ccccc2n1`, the activation was inactive: -17.1%. With `Cc1cc(C)cc(NC(=O)C(=O)NCCc2sc(-c3cccc(F)c3)nc2C)c1` the activation was inactive: 2.71%. `Cc1ccn2c(Nc3ccccc3)c(-c3c[nH]c4ccccc34)nc2c1` was tested, and the activation was inactive: -4.28%. In the case of `CC(=O)Nc1ccc(NC(=O)c2ccc3c(c2)CCN3S(=O)(=O)c2ccc(C)cc2)cc1`, the activation is reported as inactive: 3.51%. For `CCOc1ccc(C(c2c(O)cc(C)n(Cc3ccco3)c2=O)N2CCN(C)CC2)cc1` (stereo not given), the activation was inactive: -18.2%. With `CC1CCN(C(=O)Cn2cc(SCC(=O)NCc3ccccc3)c3ccccc32)CC1` the activation was inactive: -24.7%. `CCOc1ccc(-c2cn3c(n2)sc2cc(C(=O)NC(C)C45CC6CC(CC(C6)C4)C5)ccc23)cc1` (stereo not given) was tested, and the activation was inactive: -2.73%. `CCC(Sc1nnc(-c2ccc(F)cc2)c(-c2ccc(F)cc2)n1)C(=O)NC1CCCC1` (stereo not given) was tested, and the activation was inactive: -24.2%. For `CCc1nnc(NC(=O)c2nc(SCc3cccc(C)c3)ncc2Cl)s1`, the activation was inactive: 44.1%. `O=S(=O)(c1ccccc1)n1nc(-c2ccco2)nc1NCc1ccccc1` was tested, and the activation was inactive: -18.2%. In the case of `Cc1cccc(-n2ncc3c(NCCOCCO)ncnc32)c1`, the activation is reported as inactive: 6.91%. For `O=C(CSc1nc2c([nH]c3ccccc32)c(=O)n1-c1ccccc1F)Nc1cccc(Cl)c1`, the activation was inactive: -23.6%. In the case of `CCC(=O)N1CCc2cc(S(=O)(=O)CCC(=O)Nc3cc(Cl)ccc3OC)ccc21`, the activation is reported as inactive: 1.92%. `COc1cccc(N2CC(NC(=O)/C=C\c3ccccc3)CC2=O)c1` (stereo not given) was tested, and the activation was inactive: -12.3%. For `Cc1cccc(Cn2c(CN3CCC(C(=O)NC(C)C)CC3)cc3ccccc32)c1`, the activation was inactive: 17.9%. In the case of `COc1ccc(CNC(=O)C2CCN(S(=O)(=O)c3cccc(-c4noc(C)n4)c3)CC2)cc1`, the activation is reported as inactive: -0.0452%. For `COc1ccc(C2C(C(=O)Nc3ccccc3)=C(C)Nc3nc(-c4ccc(Cl)cc4)nn32)cc1` (stereo not given), the activation was inactive: -5.18%. With `Cc1ccccc1CNCCCSc1nnnn1C` the activation was inactive: 1.47%. `Cc1ccc(NC(=O)CSCc2cc(=O)c3ccccc3[nH]2)c(C)c1` was tested, and the activation was inactive: 16%. In the case of `CCOc1ccc(CNC(=O)c2cc3c(=O)oc4ccc(C)cc4c3s2)cc1`, the activation is reported as inactive: -7.15%. `Cc1ccc(-n2c(=O)c3c(C)c(C(=O)N(C)C)sc3n(Cc3ccccc3C)c2=O)cc1C` was tested, and the activation was inactive: -18.1%. With `COc1ccc(-c2cn3c(n2)sc2cc(C(=O)NCCCN4CCN(C)CC4)ccc23)cc1` the activation was inactive: -0.0473%. In the case of `CCCOc1ccc(C2C(=O)N(C3CCCCC3)CC(=O)N2C2CCCCC2)cc1OC` (stereo not given), the activation is reported as inactive: -6.55%. In the case of `O=C(COCc1cc(-c2ccc(F)cc2)on1)Nc1cccc(C(F)(F)F)c1`, the activation is reported as inactive: 5.43%. In the case of `COc1ccc(Cn2c(CO)cnc2SCc2ccccc2)cc1`, the activation is reported as inactive: 48.1%. `Cc1cccc(Nc2nc(-c3ccccc3)nc3ccccc23)c1` was tested, and the activation was active: 110%. `COCCNC(=O)c1ccc(Cn2c(SCC(N)=O)nc3ccccc3c2=O)cc1` was tested, and the activation was inactive: -2.89%. `O=S1(=O)OC(c2ccc(O)cc2)(c2ccc(O)cc2)c2ccccc21` was tested, and the activation was inactive: -69.1%. With `Cc1cc(=O)n2nc(N3CCC(C(=O)Nc4ccc(Br)c(C)c4)CC3)sc2n1` the activation was inactive: 9.21%. For `COc1cccc(OCCSc2nc3ccccc3n2CC(=O)N2CCOCC2)c1`, the activation was inactive: -7.41%. With `COc1ccc2c(CNC3CCC(C)CC3)c(C(=O)O)n(Cc3ccc(F)cc3)c2c1` (stereo not given) the activation was active: 91.1%. In the case of `Cc1ccc(N(Cc2cccs2)C(=O)c2ccc(OC(C)C)cc2)cc1`, the activation is reported as inactive: -17.4%. In the case of `CCOc1ccccc1C(=O)NCc1ccc2c(c1)CCN2C(=O)c1ccc(F)cc1`, the activation is reported as inactive: 1.03%. `Cn1c(SCc2ccc(F)cc2)nc2ccc(C(=O)NCc3cccc(Cl)c3)cc21` was tested, and the activation was inactive: -9.96%. In the case of `CCN(C(=O)c1c(C)oc2ncnc(N3CCCCC3)c12)c1cc(C)ccc1C`, the activation is reported as inactive: -3.95%. With `CCOC(=O)c1ccccc1NC(=O)CSc1ccc(-c2sc(C)nc2C)nn1` the activation was inactive: 7.57%. For `COc1ccc(-c2noc(CN(C(=O)c3ccc(C)cc3C)C(C)C)n2)cc1`, the activation was inactive: -2.11%. For `Cc1ccc(C(=O)NCCc2csc(-c3cccc(F)c3)n2)cc1C`, the activation was active: 60.5%. With `CCOC(=O)c1cccc(NC(=O)COc2ccc3c(C)cc(=O)oc3c2)c1` the activation was inactive: -4.69%. With `CCOC(=O)c1cnc2c(ccc3ccccc32)c1Nc1ccccc1O` the activation was inactive: 10.7%. `COc1ccc(C2CC(=O)Nc3c2c(C)nn3-c2nncc(-c3ccccc3)n2)c(OC)c1OC` (stereo not given) was tested, and the activation was inactive: 8.68%.
